The record followed here is PMC12820563, “FoxP3 forms a head-to-head dimer in vivo and stabilizes its multimerization on adjacent microsatellites”.

The list shows a part of the results.

For the test, the target named is T1, MBP-FoxP1dN (Mus musculus, UniProt P58462 326-579).
T1 sequence: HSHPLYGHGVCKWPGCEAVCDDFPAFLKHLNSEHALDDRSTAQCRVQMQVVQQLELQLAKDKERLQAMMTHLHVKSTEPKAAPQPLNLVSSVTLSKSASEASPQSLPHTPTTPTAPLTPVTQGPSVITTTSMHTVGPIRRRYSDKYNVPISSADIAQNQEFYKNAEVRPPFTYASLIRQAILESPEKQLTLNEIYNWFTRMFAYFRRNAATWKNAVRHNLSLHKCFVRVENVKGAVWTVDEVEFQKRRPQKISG
In words: PD-seq (MBP pull-down with sequencing); 20 mM Tris-HCl pH 7.5, 100 mM NaCl, 1.5 mM MgCl2, 0.4 uM protein, 0.1 uM dsDNA library, 30 min, room temperature, amylose pull-down; high values mean tight binding. As to conditions: protein: recombinant; tags: His6-MBP; chain copies: 2; dsDNA, one strand shown. In outline: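 A degenerate double-stranded DNA library, filled in with Klenow, was added at 0.1 µM to 0.4 µM His6-MBP-tagged mouse FoxP3 or FoxP1 fragment lacking the N-terminus, expressed in E. coli. Incubation lasted 30 min at room temperature in Tris pH 7.5 buffer with NaCl and MgCl2, after which complexes were collected on amylose resin, washed three times, digested with proteinase K to free the DNA, barcoded by PCR and sequenced by Illumina. Binding is the pooled-replicate reads-per-million enrichment of pull-down over input.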
In the case of “GATGATTGTTCTCCCAGCTGATGAATTGTACAAGTCGAGTAAACAAATTTTCCTAATCTTTCTGTTCAAGCGCCATCTAC”, the binding signal was 1.05 RPM ratio (pull-down/input).

“GATGATTGTTCTCCCAGCTGATGAATTACCTTGTTCGAGTAAACAAATTTTCCTAATCTTTCTGTTCAAGCGCCATCTAC”: the binding signal is 0.988 RPM ratio (pull-down/input).

In the case of “GATGATTGTTCTCCCAGCTGATGAATTTCTGAGGTCGAGTAAACAAATTTTCCTAATCTTTCTGTTCAAGCGCCATCTAC”, the binding signal is 0.736 RPM ratio (pull-down/input).

Take “GATGATTGTTCTCCCAGCTGATGAATTTTTTGGATCGAGTAAACAAATTTTCCTAATCTTTCTGTTCAAGCGCCATCTAC”: the binding signal was 0.952 RPM ratio (pull-down/input).

For “GATGATTGTTCTCCCAGCTGATGAATTTCATCTGTCGAGTAAACAAATTTTCCTAATCTTTCTGTTCAAGCGCCATCTAC”, the binding signal is 0.729 RPM ratio (pull-down/input).

For the sequence “GATGATTGTTCTCCCAGCTGATGAATTTAAGGTATCGAGTAAACAAATTTTCCTAATCTTTCTGTTCAAGCGCCATCTAC”, the binding signal was 0.985 RPM ratio (pull-down/input).

As to “GATGATTGTTCTCCCAGCTGATGAATTGTCTATTTCGAGTAAACAAATTTTCCTAATCTTTCTGTTCAAGCGCCATCTAC”, the binding signal is 1.31 RPM ratio (pull-down/input).

Take “GATGATTGTTCTCCCAGCTGATGAATTACTGGGGTCGAGTAAACAAATTTTCCTAATCTTTCTGTTCAAGCGCCATCTAC”: the binding signal is 0.865 RPM ratio (pull-down/input).

Consider “GATGATTGTTCTCCCAGCTGATGAATTAACGCGGTCGAGTAAACAAATTTTCCTAATCTTTCTGTTCAAGCGCCATCTAC”, for which the binding signal is 0.904 RPM ratio (pull-down/input).

On to “GATGATTGTTCTCCCAGCTGATGAATTATGACATTCGAGTAAACAAATTTTCCTAATCTTTCTGTTCAAGCGCCATCTAC”, for which the binding signal is 1.12 RPM ratio (pull-down/input).

Take “GATGATTGTTCTCCCAGCTGATGAATTATTCGAGTCGAGTAAACAAATTTTCCTAATCTTTCTGTTCAAGCGCCATCTAC”: the binding signal was 0.911 RPM ratio (pull-down/input).

For the sequence “GATGATTGTTCTCCCAGCTGATGAATTGGGGCGCTCGAGTAAACAAATTTTCCTAATCTTTCTGTTCAAGCGCCATCTAC”, the binding signal is 0.789 RPM ratio (pull-down/input).

Turning to “GATGATTGTTCTCCCAGCTGATGAATTCTAGTAATCGAGTAAACAAATTTTCCTAATCTTTCTGTTCAAGCGCCATCTAC”, the binding signal was 1.37 RPM ratio (pull-down/input).

With “GATGATTGTTCTCCCAGCTGATGAATTCGGTGCATCGAGTAAACAAATTTTCCTAATCTTTCTGTTCAAGCGCCATCTAC”, the binding signal was 1.21 RPM ratio (pull-down/input).

For the sequence “GATGATTGTTCTCCCAGCTGATGAATTGCAGGGGTCGAGTAAACAAATTTTCCTAATCTTTCTGTTCAAGCGCCATCTAC”, the binding signal was 0.992 RPM ratio (pull-down/input).

For the sequence “GATGATTGTTCTCCCAGCTGATGAATTTAGCCATTCGAGTAAACAAATTTTCCTAATCTTTCTGTTCAAGCGCCATCTAC”, the binding signal is 0.994 RPM ratio (pull-down/input).

On to “GATGATTGTTCTCCCAGCTGATGAATTGATATATTCGAGTAAACAAATTTTCCTAATCTTTCTGTTCAAGCGCCATCTAC”, for which the binding signal was 1.14 RPM ratio (pull-down/input).

In the case of “GATGATTGTTCTCCCAGCTGATGAATTTCACGGTTCGAGTAAACAAATTTTCCTAATCTTTCTGTTCAAGCGCCATCTAC”, the binding signal was 0.789 RPM ratio (pull-down/input).

With “GATGATTGTTCTCCCAGCTGATGAATTCGCCCGATCGAGTAAACAAATTTTCCTAATCTTTCTGTTCAAGCGCCATCTAC”, the binding signal was 0.901 RPM ratio (pull-down/input).

In the case of “GATGATTGTTCTCCCAGCTGATGAATTTTAGGTATCGAGTAAACAAATTTTCCTAATCTTTCTGTTCAAGCGCCATCTAC”, the binding signal is 0.978 RPM ratio (pull-down/input).

Turning to “GATGATTGTTCTCCCAGCTGATGAATTTGTGGAGTCGAGTAAACAAATTTTCCTAATCTTTCTGTTCAAGCGCCATCTAC”, the binding signal is 1 RPM ratio (pull-down/input).

On to “GATGATTGTTCTCCCAGCTGATGAATTGACCGGGTCGAGTAAACAAATTTTCCTAATCTTTCTGTTCAAGCGCCATCTAC”, for which the binding signal is 0.833 RPM ratio (pull-down/input).

“GATGATTGTTCTCCCAGCTGATGAATTGTACCGGTCGAGTAAACAAATTTTCCTAATCTTTCTGTTCAAGCGCCATCTAC”: the binding signal is 0.886 RPM ratio (pull-down/input).

As to “GATGATTGTTCTCCCAGCTGATGAATTCTGGAGCTCGAGTAAACAAATTTTCCTAATCTTTCTGTTCAAGCGCCATCTAC”, the binding signal was 0.732 RPM ratio (pull-down/input).

For “GATGATTGTTCTCCCAGCTGATGAATTAATCGACTCGAGTAAACAAATTTTCCTAATCTTTCTGTTCAAGCGCCATCTAC”, the binding signal was 0.641 RPM ratio (pull-down/input).

In the case of “GATGATTGTTCTCCCAGCTGATGAATTGGGAACTTCGAGTAAACAAATTTTCCTAATCTTTCTGTTCAAGCGCCATCTAC”, the binding signal was 0.868 RPM ratio (pull-down/input).

On to “GATGATTGTTCTCCCAGCTGATGAATTCTGCGCGTCGAGTAAACAAATTTTCCTAATCTTTCTGTTCAAGCGCCATCTAC”, for which the binding signal was 0.978 RPM ratio (pull-down/input).

On to “GATGATTGTTCTCCCAGCTGATGAATTATGTAATTCGAGTAAACAAATTTTCCTAATCTTTCTGTTCAAGCGCCATCTAC”, for which the binding signal is 1.31 RPM ratio (pull-down/input).

As for “GATGATTGTTCTCCCAGCTGATGAATTTCGATCATCGAGTAAACAAATTTTCCTAATCTTTCTGTTCAAGCGCCATCTAC”, the binding signal is 0.943 RPM ratio (pull-down/input).

Take “GATGATTGTTCTCCCAGCTGATGAATTGGTTAGATCGAGTAAACAAATTTTCCTAATCTTTCTGTTCAAGCGCCATCTAC”: the binding signal is 0.911 RPM ratio (pull-down/input).

Take “GATGATTGTTCTCCCAGCTGATGAATTGTATTTCTCGAGTAAACAAATTTTCCTAATCTTTCTGTTCAAGCGCCATCTAC”: the binding signal is 1.35 RPM ratio (pull-down/input).
